Assay results published in PMC4336329 (PLoS ONE, 2015).
In all, about 310,000 compounds went through this assay and about 14,000 (4.5%) showed an effect of 50% or more. The effect is printed as a negative number. Some of the results follow.

Target: human ether-à-go-go-related gene (hERG) potassium channel (human, UniProt Q12809)
Assay: primary screen, population patch clamp on CHO cells stably expressing hERG
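Further: peak tail current of the secondary pulse compared with the same well before compound.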

Chain of human ether-à-go-go-related gene (hERG) potassium channel (Q12809 whole entry, looked up): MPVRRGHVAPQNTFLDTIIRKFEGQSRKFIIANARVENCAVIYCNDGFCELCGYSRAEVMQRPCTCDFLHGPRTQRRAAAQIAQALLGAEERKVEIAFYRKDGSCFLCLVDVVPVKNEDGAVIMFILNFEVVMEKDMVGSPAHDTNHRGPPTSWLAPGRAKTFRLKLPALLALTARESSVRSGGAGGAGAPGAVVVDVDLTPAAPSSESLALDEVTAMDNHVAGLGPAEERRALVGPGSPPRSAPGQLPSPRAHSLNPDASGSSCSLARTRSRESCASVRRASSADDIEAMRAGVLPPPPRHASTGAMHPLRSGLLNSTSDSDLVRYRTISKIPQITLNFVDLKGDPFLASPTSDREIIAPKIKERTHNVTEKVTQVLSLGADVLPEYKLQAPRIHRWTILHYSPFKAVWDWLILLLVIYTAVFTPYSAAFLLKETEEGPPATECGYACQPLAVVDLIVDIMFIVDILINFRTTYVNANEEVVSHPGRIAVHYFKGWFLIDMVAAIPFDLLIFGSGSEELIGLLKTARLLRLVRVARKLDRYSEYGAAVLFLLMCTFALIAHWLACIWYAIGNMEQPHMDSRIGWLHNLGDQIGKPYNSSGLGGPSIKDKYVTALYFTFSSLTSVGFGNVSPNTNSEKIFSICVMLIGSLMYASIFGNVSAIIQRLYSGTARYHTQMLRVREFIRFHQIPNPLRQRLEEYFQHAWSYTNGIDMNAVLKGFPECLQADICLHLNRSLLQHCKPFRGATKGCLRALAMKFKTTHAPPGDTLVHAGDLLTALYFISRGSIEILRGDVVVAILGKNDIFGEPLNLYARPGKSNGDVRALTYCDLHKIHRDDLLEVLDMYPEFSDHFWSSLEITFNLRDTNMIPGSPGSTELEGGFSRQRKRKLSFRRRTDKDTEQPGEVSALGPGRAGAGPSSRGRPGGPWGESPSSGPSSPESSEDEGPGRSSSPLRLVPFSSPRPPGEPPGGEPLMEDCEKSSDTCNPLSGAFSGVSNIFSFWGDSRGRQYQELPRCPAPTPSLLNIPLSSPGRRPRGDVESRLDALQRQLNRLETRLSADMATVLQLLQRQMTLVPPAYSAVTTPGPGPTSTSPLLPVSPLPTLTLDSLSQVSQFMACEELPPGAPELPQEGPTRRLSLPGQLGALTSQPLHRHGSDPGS

Compound | hERG current change (%, negative = inhibition) at 10uM [%]
CCOCCCNC(=O)CN1N=C(c2ccc(C)cc2)CCC1=O | -73.9
Cc1[nH]c(=O)c(C#N)c(C)c1Br | 7.33
CCN(CC)c1ccc(NC(=O)c2cccnc2)c(C)c1 | 26.9
O=C(c1ccc(Cl)cc1)c1ccc(OCC(=O)N2CCOCC2)cc1 | -40.8
CC1CC(C)CN(C(=O)CSC2=Nc3ccccc3C3=NC(Cc4c[nH]c5ccccc45)C(=O)N23)C1 (centres unmarked) | -18.3
CCOC(=O)Cn1c(=O)c(-c2ccccc2NC)nc2ccccc21 | 1.02
COc1cc(=O)[nH]c(SC(C)C(=O)Nc2cccc3ccccc23)n1 (centres unmarked) | 3.85
CCN(CC(=O)NC(C)C)C(=O)Cc1ccc(C)c(C)c1 | 7.89
CC(C)c1ccc(OCCCCN2CCCCC2)cc1.O=C(O)C(=O)O | -58.8
CC1CC(CCC(=O)NC(=S)Nc2ccc(Cl)cn2)C(=O)O1 (centres unmarked) | -24.2
O=C1C(=O)N(CCN2CCOCC2)C(c2ccccc2)/C1=C(\O)c1ccc2c(c1)OCCO2 (centres unmarked) | -15.5
Cc1cc(C)nc(SCc2ccc(C(=O)NN=C3CCCC3)cc2)n1 | 15.8
Cc1cccc(-c2nc(Nc3cccc(O)c3)c3ccccc3n2)c1 | 21.8
O=C(COC(=O)C12CC3CC(CC(C3)C1)C2)Nc1ccc([N+](=O)[O-])cc1Cl | 14.9
COC(=O)c1ccc(NC(=O)CN2CCN(S(=O)(=O)c3ccc(Br)cc3)CC2)cc1 | -31.4
CCN(CC(=O)Nc1ccc(OC)cc1)C(=O)C1CCN(C(=O)c2ccc(Cl)cc2)CC1 | -39.2
Cc1nc(SCC(=O)Nc2ccc3c(c2)OCO3)c(C#N)c2c1CCCC2 | 9.45
CN(C)CCCNc1oc(-c2ccccc2Cl)nc1S(=O)(=O)c1ccccc1 | -43.3
O=C(NC1=NCCS1)c1ccc(Cl)c(Cl)c1 | 0.298
CCOC(=O)C1CCCN(C(=O)c2cn(C)c3ccc(S(=O)(=O)N(C)C)cc3c2=O)C1 (centres unmarked) | -3.32
O=Cc1ccc(OCc2cn3ccccc3n2)cc1 | -0.106
CCOc1ccc(S(=O)(=O)NC(=O)c2ccccc2)cc1 | 14.1

Compound | hERG current change (%, negative = inhibition) at 10uM [%]
N#C/C(=C\c1ccc(OCCN2CCOCC2)cc1)C(=O)Nc1ccccc1F | -27.8
O=C(CSc1ccc2nnc(-c3cccnc3)n2n1)NCC1CCCO1 (centres unmarked) | -9.66
CC(C)OC(=O)CSc1nnc2c(n1)[nH]c1ccc(F)cc12 | 8.22
CC(C)c1ccc(OCc2ccc(C(=O)NN3CCN(C)CC3)o2)cc1 | -31.7
O=C(NCc1cccnc1)c1ccc(S(=O)(=O)Nc2ccccc2)cc1 | -47.1
CN(Cc1cn(C)nc1-c1ccccc1F)C1CCOC1 (centres unmarked) | 21.4
N/C(=N/O)C(c1ccccc1)c1ccccc1 | 9.81
CCC(=O)Nc1ccc2nc(C3CC3)n(Cc3ccccc3)c(=O)c2c1 | 2.83
Cc1ccc(/C=C/C(=O)O)cc1S(=O)(=O)NCCCO | 5.74
COc1ccccc1C(CC(=O)Nc1nccs1)c1ccco1 (centres unmarked) | 2.68
O=C(Nc1ccc(F)cc1)c1ccccc1NC(=O)C1CC=CCC1C(=O)O (centres unmarked) | 15.7
O=C(O)c1cc(O)ccc1NC(=O)c1cccc2ccccc12 | 9.38
N#C/C(=C\c1ccc(F)cc1)C(=O)Nc1ccccn1 | 2.68
CCCCCCCCOc1ccc(C2OC34CCCCC3C(C#N)(C#N)C2(C#N)C(=N)O4)cc1 (centres unmarked) | 6.39
CCN(C(=O)CN1C(=O)NC(c2ccccc2)(c2ccc(C)c(C)c2)C1=O)C1CCCCC1 (centres unmarked) | -33.3
COc1ccc(OCCSc2nnc(-c3ccccc3)n2N)cc1 | -5.1
CC(=O)c1cccc(NC(=O)CCS(=O)(=O)c2ccc(Br)s2)c1 | 14.7
O=C(OCc1nc2ccsc2c(=O)[nH]1)c1cc(Br)c(Br)s1 | -9.02
COc1ccc(C(=O)NCCSc2ccccc2C)cc1 | -14.4
Cc1nc2c(C)cccn2c(=O)c1NC(=O)c1cccs1 | 5.79
CCc1ccc(Nc2cnn(C34CC5CC(CC(CC(=O)O)(C5)C3)C4)c(=O)c2Cl)cc1 | 13.1
N#C/C(=C\N1CCOCC1)S(=O)(=O)c1ccc(Cl)cc1 | 2.5
